Measurements as given in PubChem BioAssay AID360 (National Center for Advancing Translational Sciences (NCATS), 2006).
Out of some 48,000 compounds screened, about 550 (1.1%) were called active. Not shown: some 4% with an inconclusive outcome. No stated cut-off is given here; in the data, active means potency below about 15 µM; inconclusive means mostly about 16 µM to 33 µM; inactive means weaker than that. Some of the results follow.

What follows are compounds tested against Lysosomal acid glucosylceramidase (Homo sapiens) (UniProt P04062) (assay: Glucocerebrosidase). Conditions: purified enzyme, resorufin glucoside fluorescence (screen aimed at inhibitors), 20 min.
UniProt P04062, sequence (P04062 whole entry, looked up): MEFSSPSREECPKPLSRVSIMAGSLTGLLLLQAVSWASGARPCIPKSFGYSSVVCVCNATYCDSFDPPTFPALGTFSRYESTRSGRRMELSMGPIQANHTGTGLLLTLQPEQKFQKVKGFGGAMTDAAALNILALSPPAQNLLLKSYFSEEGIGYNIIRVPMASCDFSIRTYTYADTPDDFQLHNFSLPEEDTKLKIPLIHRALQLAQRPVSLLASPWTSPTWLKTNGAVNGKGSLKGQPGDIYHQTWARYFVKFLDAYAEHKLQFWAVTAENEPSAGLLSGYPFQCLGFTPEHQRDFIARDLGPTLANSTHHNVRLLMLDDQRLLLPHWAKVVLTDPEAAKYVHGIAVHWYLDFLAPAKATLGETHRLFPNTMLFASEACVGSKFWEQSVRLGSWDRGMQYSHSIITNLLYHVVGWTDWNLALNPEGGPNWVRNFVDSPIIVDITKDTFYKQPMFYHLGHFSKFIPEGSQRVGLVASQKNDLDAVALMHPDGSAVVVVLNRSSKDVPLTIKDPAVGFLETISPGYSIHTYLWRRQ
Procedure, shortened: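 Wild-type enzyme at 0.2 nM final in 50mM citric acid/KH2PO4, 10mM sodium taurocholate, 0.01% tween-20, pH 5.9, with resorufin beta-D-glucopyranoside at 30 uM final. Compounds titrated, 20 min at RT, red fluorescence read; AC50 from titration.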
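Further: the screen sought inhibitors.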
Potency means the concentration at half of the fitted maximal effect.

Potency, inactive:
O=C(CSc1nc(-c2ccccc2)cs1)N1CCN(C(=O)c2ccco2)CC1 > 76.9 µM
Cc1nc(NCc2ccc3c(c2)OCO3)c2oc3ccccc3c2n1 > 76.9 µM
CS(=O)CSc1nc2c(cc1C#N)CCCC2 (centres undefined) > 76.9 µM
CN(C(=O)c1cccc(C#N)c1)c1nnc(C2CCCO2)s1 (centres undefined) > 76.9 µM
COc1ccc(C2CC(=O)C3=C(C2)Nc2ccccc2N(C(C)=O)C3c2ccco2)cc1 (centres undefined) > 76.9 µM
CCOC(=O)N1CCN(c2ccc(S(=O)(=O)N(Cc3ccccc3)Cc3ccccc3)cn2)CC1 > 76.9 µM
Cc1ccc2oc(C(=O)NCc3ccc4c(c3)OCO4)c(C)c2c1
CCCC(C(=O)NC1CCCC1)N(CCCN1CCOCC1)C(=O)c1snc(C(N)=O)c1N (centres undefined) > 76.9 µM
CN1C(=O)CSc2ccc(NC(=O)NCc3cccnc3)cc21 > 76.9 µM
CC(C)C(OC(=O)c1cc2occc2n1C)C(=O)NCc1ccc2c(c1)OCO2 (centres undefined) > 76.9 µM
c1ccc(-n2ncc3c2ncn2cnnc32)cc1 > 76.9 µM
CC(C)C(=O)Nc1cc(C(F)(F)F)ccc1N1CCOCC1 > 76.9 µM
CCOC(=O)N=S(N)(=O)c1ccccc1 (centres undefined) > 76.9 µM
NC(=O)c1c(NC(=O)c2cc3ccccc3o2)sc2c1CCC2 > 76.9 µM
O=C1CCCC2=C1C(c1ccncc1)c1c(nc(SCc3ccccc3)[nH]c1=O)N2 (centres undefined) > 76.9 µM
NC(=O)c1ccsc1NC(=O)CN1C(=O)C2CC=CCC2C1=O (centres undefined) > 76.9 µM
CCCCCC(=O)Nc1ccc(N2CCN(S(C)(=O)=O)CC2)cc1 > 76.9 µM
N#Cc1c(-c2ccco2)cc(-c2ccccn2)nc1N > 76.9 µM
CN1C(=O)C2(C(C#N)=C(N)Oc3n[nH]c(-c4ccc(Cl)cc4)c32)c2ccccc21 (centres undefined) > 76.9 µM
O=C(NCc1nc(-c2ccccc2)no1)c1ccc2c(c1)OCO2 > 76.9 µM
CC(C)CNc1cc(=O)n(C)c(=O)n1C > 76.9 µM
O=C(Nc1ccccc1C(=O)N1CCOCC1)C1COc2ccccc2O1 (centres undefined) > 76.9 µM
CC1(c2ccccn2)Nc2ccccc2-c2nc3ccccc3n21 (centres undefined) > 76.9 µM
O=C(CN1C(=O)CCS(=O)(=O)c2ccccc21)Nc1ccc2c(c1)OCCO2 > 76.9 µM
CC(C)Oc1ccc(C(CC(=O)O)NC(=O)CSc2ncn[nH]2)cc1 (centres undefined) > 76.9 µM
NC(=O)CSc1nnc(-c2ccc(S(=O)(=O)N3CCCC3)cc2)n1Cc1ccco1 > 76.9 µM
Cc1cc2c(ccc3c2no[n+]3[O-])nn1 > 76.9 µM
Cc1cc(C)c(C(N)=O)c(Nc2cccc(Cl)c2C)n1 > 76.9 µM
O=C(c1ccco1)N1CCN(C(=O)c2ccc(COc3ccc(F)cc3)o2)CC1 > 76.9 µM
Brc1c(CSc2nncn2-c2ccccc2)nc2sccn12 > 76.9 µM
Cc1cc(C(=O)OCc2nc3ccccc3s2)c(C)o1 > 76.9 µM
Cn1c(=O)[nH]c(=O)c2c1nc(NCCCn1ccnc1)n2Cc1ccccc1 > 76.9 µM
Cc1cc(C(=O)O)cc(S(=O)(=O)N2CCOCC2)c1C > 76.9 µM
O=C(O)c1cccc(Nc2nc(N3CCOCC3)nc(N3CCOCC3)n2)c1 > 76.9 µM
O=C(Cn1[nH]c(=O)c2ccccc2c1=O)N1CC=C(c2ccccc2)CC1 > 76.9 µM
Clc1cc(Cl)c2nc(N3CCCC3)sc2c1 > 76.9 µM
O=C(Oc1ccc2c(c1)OCC2=O)c1ccccc1 > 76.9 µM
CCOc1ccc2nc(SCC(=O)NC3CCS(=O)(=O)C3)[nH]c2c1 (centres undefined) > 76.9 µM
Nc1c(C(=O)NCCN2CCOCC2)c2nc3ccccc3nc2n1-c1ccccc1 > 76.9 µM
COCCSc1nnc(NS(=O)(=O)Cc2ccccc2)s1 > 76.9 µM
COc1ccc(Cc2nnn(CC(=O)O)n2)cc1 > 76.9 µM
CCC1(CC)Cc2ccccc2-c2nc(CN3CCOCC3)[nH]c(=O)c21 > 76.9 µM
CCn1ncc(Br)c1C(=O)Nc1cc(C)ccc1F > 76.9 µM
CCOc1ccccc1-n1c(SCC(N)=O)nnc1-c1ccc(O)cc1 > 76.9 µM
Cc1n[nH]c(=O)nc1N1CCc2ccccc2C1 > 76.9 µM
Cc1cccc(N(C2C=CS(=O)(=O)C2)S(=O)(=O)c2ccccc2)c1 (centres undefined) > 76.9 µM
CCOC(=O)c1cccc(N2C(=O)C3C(C(=O)NC4CC4)C4(C)C=CC3(O4)C2C(=O)NC(C)(C)C)c1 (centres undefined) > 76.9 µM
COc1ccccc1-n1c(CNC(=O)c2ccco2)nnc1SCC(=O)Nc1ccc(F)cc1 > 76.9 µM
CN(Cc1ccccc1)S(=O)(=O)c1ccc(C(=O)Nc2nnc(C3CC3)o2)cc1
O=C(Nc1ccc(-c2noc(CCc3ccccc3)n2)cc1)c1ccco1 > 76.9 µM
COC(=O)c1cccc(NC(=O)CN2CCC(NC(=O)c3cc(OC)c(OC)c(OC)c3)CC2)c1 > 76.9 µM
COc1ccc(CN2C(=O)C3C4C=CC(C4)C3C2=O)cc1 (centres undefined) > 76.9 µM
CCN(CC)CCCn1c(=S)[nH]c2cc(Cl)ccc2c1=O > 76.9 µM
CC(C)(C)c1[nH]nc2c1C(c1ccccc1OC(=O)N1CCOCC1)C(C#N)=C(N)O2 (centres undefined) > 76.9 µM
CCn1c(CNC(=O)c2cccs2)nnc1SCC(=O)NCCc1ccccc1 > 76.9 µM
O=C(COC(=O)c1cccc(S(=O)(=O)N2CCN(c3ccccc3)CC2)c1)NCc1ccco1 > 76.9 µM
COC(=O)Cn1c(C)c(C(C)=O)c(C(C)=O)c1C > 76.9 µM
CC(C)CC(c1nnnn1CC1CCCO1)N1CCN(c2nc3ccccc3s2)CC1 (centres undefined)
CCOCCCNC(=O)NC12CC3CC(CC(C3)C1)C2 > 76.9 µM
COc1ccc(NC(=O)CSc2nnc(-c3cccs3)n2Cc2ccco2)cc1OC > 76.9 µM
O=C(CSc1nnnn1-c1ccccc1)Nc1ccc(Cl)cn1 > 76.9 µM
NS(=O)(=O)c1ccc(CCNC2CC(=O)N(Cc3ccccc3)C2=O)cc1 (centres undefined) > 76.9 µM
O=C(CSc1ccc2nnc(-c3ccc(F)cc3)n2n1)N1CCCCC1 > 76.9 µM
CC1CCCN(c2nc3c(c(=O)n(C)c(=O)n3C)n2CCSc2nc3ccccc3o2)C1 (centres undefined) > 76.9 µM
CCOC(=O)N1CCC(NS(=O)(=O)c2ccc3c(c2)oc(=O)n3C)CC1 > 76.9 µM
Cc1cc(C)n(-c2nc(NCC(C)O)c3c4c(sc3n2)CCCC4)n1 (centres undefined) > 76.9 µM
CCC1(c2ccc(F)cc2)NC(=O)N(CC(=O)N2CCOCC2)C1=O (centres undefined) > 76.9 µM
CCn1c(SCC(=O)c2ccc(F)cc2)nnc1-c1ccoc1C > 76.9 µM
CCCCn1c(=O)n(CC(=O)Nc2c(CC)cccc2CC)c(=O)c2c1nc(CO)n2CCC > 76.9 µM
COc1ccc(S(=O)(=O)N(C)CC(=O)N2CCC(C(N)=O)CC2)cc1 > 76.9 µM
Cc1nc(SCC(=O)Nc2ccc3c(c2)OCCO3)c2oc3ccccc3c2n1 > 76.9 µM
CCn1c(SCC(=O)Nc2ccc(NC(C)=O)cc2)nnc1C1CC1 > 76.9 µM
Fc1ccc(CSc2nnc(-c3cccnc3)n2Cc2ccco2)cc1 > 76.9 µM
CC(C)(C)n1nnnc1C(c1cccnc1)N1CCN(C(=O)c2ccco2)CC1 (centres undefined) > 76.9 µM
CC(=O)Nc1ccc(N2CCN(C(=O)c3cccs3)CC2)cc1 > 76.9 µM
Cc1ccc(-c2noc(CCC(=O)Nc3ccc4c(c3)OCO4)n2)cc1 > 76.9 µM
CC(=O)Nc1cccc(NC(=O)C2CCCN2C(=O)Nc2ccc(Cl)cc2)c1 (centres undefined) > 76.9 µM
COc1cccc(-c2nn(-c3ccccc3)cc2C(=O)Nc2nccs2)c1 > 76.9 µM
CNC(=O)CCc1nc(-c2ccc(C(C)(C)C)cc2)no1 > 76.9 µM
CCOC(=O)CSc1nnc(-c2ccc(NS(=O)(=O)c3ccc(C)cc3)cc2)o1 > 76.9 µM
CCN(CC)C(=O)c1sc(NC(=O)Cc2cccs2)c(C#N)c1C > 76.9 µM
CCCS(=O)(=O)N1CCCC(C(=O)NCc2cccnc2)C1 (centres undefined) > 76.9 µM
Cc1ccc(C)c(-c2nnc(OCC(=O)Nc3cc(C)on3)c3ccccc23)c1 > 76.9 µM
COc1ccc(CCN2C(=O)C(O)=C(C(=O)c3ccco3)C2c2cccs2)cc1OC (centres undefined) > 76.9 µM
C=CCCCOc1ccc(C(=O)O)cc1 > 76.9 µM
COc1ccc(OC)c(NC(=O)Cn2c(=O)oc3ccccc32)c1 > 76.9 µM
Cc1cc(C)n(-c2nc3ccccc3c(=O)n2OCCOc2ccccc2)n1 > 76.9 µM
CCCCCCC(=O)Nc1c(O)c2ccccc2[nH]c1=O > 76.9 µM
COC(=O)c1ccc(Cl)c(NC(=O)CN(c2ccc3c(c2)OCO3)S(C)(=O)=O)c1 > 76.9 µM
